In the supplement of paper PMC8728848:
Some of the results follow.

Columns and labels:
Assay in all cases: glycan array binding signal (z-score within array); higher = stronger binding
Conditions in all cases: glycan notation: IUPAC condensed, linker removed
Neu5Ac(a2-3)Gal(b1-4)Glc = target: Neu5Ac(a2-3)Gal(b1-4)Glc
Method in brief: (§1)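 The Consortium for Functional Glycomics database supplied 3228 glycan arrays, of which those lacking an available protein sequence were dropped. The binding signal, a within-array Z-score, was averaged across arrays of the same protein sequence and across linkers. Negative scores can be read as non-binding.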

[1] = target: Neu5Ac(a2-3)Gal(b1-4)GlcNAc
Method in brief: as §1

[2] = target: Neu5Ac(a2-3)Gal(b1-4)GlcNAc(b1-2)Man
Method in brief: as §1

[3] = target: Neu5Ac(a2-3)Gal(b1-4)GlcNAc(b1-2)Man(a1-3)[GlcNAc(b1-4)][Neu5Ac(a2-3)Gal(b1-4)GlcNAc(b1-2)Man(a1-6)]Man(b1-4)GlcNAc(b1-4)GlcNAc
Method in brief: as §1

[4] = target: Neu5Ac(a2-3)Gal(b1-4)GlcNAc(b1-2)Man(a1-3)[Neu5Ac(a2-3)Gal(b1-4)GlcNAc(b1-2)Man(a1-6)]Man(b1-4)GlcNAc(b1-4)GlcNAc
Method in brief: as §1

[5] = target: Neu5Ac(a2-3)Gal(b1-4)GlcNAc(b1-2)Man(a1-3)[Neu5Ac(a2-3)Gal(b1-4)GlcNAc(b1-2)Man(a1-6)]Man(b1-4)GlcNAc(b1-4)[Fuc(a1-6)]GlcNAc
Method in brief: as §1

[6] = target: Neu5Ac(a2-3)Gal(b1-4)GlcNAc(b1-2)Man(a1-3)[Neu5Ac(a2-6)Gal(b1-4)GlcNAc(b1-2)Man(a1-6)]Man(b1-4)GlcNAc(b1-4)GlcNAc
Method in brief: as §1

[7] = target: Neu5Ac(a2-3)Gal(b1-4)GlcNAc(b1-2)[Neu5Ac(a2-3)Gal(b1-4)GlcNAc(b1-4)]Man(a1-3)[GlcNAc(b1-4)][Neu5Ac(a2-3)Gal(b1-4)GlcNAc(b1-2)[Neu5Ac(a2-3)Gal(b1-4)GlcNAc(b1-6)]Man(a1-6)]Man(b1-4)GlcNAc(b1-4)GlcNAc
Method in brief: as §1

[8] = target: Neu5Ac(a2-3)Gal(b1-4)GlcNAc(b1-2)[Neu5Ac(a2-3)Gal(b1-4)GlcNAc(b1-4)]Man(a1-3)[GlcNAc(b1-4)][Neu5Ac(a2-3)Gal(b1-4)GlcNAc(b1-4)Man(a1-6)]Man(b1-4)GlcNAc(b1-4)GlcNAc
Method in brief: as §1

[9] = target: Neu5Ac(a2-3)Gal(b1-4)GlcNAc(b1-2)[Neu5Ac(a2-3)Gal(b1-4)GlcNAc(b1-6)]Man(a1-6)[Neu5Ac(a2-3)Gal(b1-4)GlcNAc(b1-2)Man(a1-3)]Man(b1-4)GlcNAc(b1-4)GlcNAc
Method in brief: as §1

[10] = target: Neu5Ac(a2-3)Gal(b1-4)GlcNAc(b1-2)[Neu5Ac(a2-3)Gal(b1-4)GlcNAc(b1-6)]Man(a1-6)[Neu5Ac(a2-3)Gal(b1-4)GlcNAc(b1-2)Man(a1-3)][GlcNAc(b1-4)]Man(b1-4)GlcNAc(b1-4)GlcNAc
Method in brief: as §1

[11] = target: Neu5Ac(a2-3)Gal(b1-4)GlcNAc(b1-3)Gal
Method in brief: as §1

[12] = target: Neu5Ac(a2-3)Gal(b1-4)GlcNAc(b1-3)Gal(b1-3)GlcNAc
Method in brief: as §1

[13] = target: Neu5Ac(a2-3)Gal(b1-4)GlcNAc(b1-3)Gal(b1-4)GlcNAc
Method in brief: as §1

[14] = target: Neu5Ac(a2-3)Gal(b1-4)GlcNAc(b1-3)Gal(b1-4)GlcNAc(b1-2)Man(a1-3)[Neu5Ac(a2-3)Gal(b1-4)GlcNAc(b1-3)Gal(b1-4)GlcNAc(b1-2)Man(a1-6)]Man(b1-4)GlcNAc(b1-4)GlcNAc
Method in brief: as §1

[15] = target: Neu5Ac(a2-3)Gal(b1-4)GlcNAc(b1-3)Gal(b1-4)GlcNAc(b1-3)Gal(b1-4)GlcNAc
Method in brief: as §1

[16] = target: Neu5Ac(a2-3)Gal(b1-4)GlcNAc(b1-3)Gal(b1-4)GlcNAc(b1-3)Gal(b1-4)GlcNAc(b1-2)Man(a1-3)[Neu5Ac(a2-3)Gal(b1-4)GlcNAc(b1-3)Gal(b1-4)GlcNAc(b1-3)Gal(b1-4)GlcNAc(b1-2)Man(a1-6)]GalNAc
Method in brief: as §1

[17] = target: Neu5Ac(a2-3)Gal(b1-4)GlcNAc(b1-3)Gal(b1-4)GlcNAc(b1-3)GalNAc
Method in brief: as §1

[18] = target: Neu5Ac(a2-3)Gal(b1-4)GlcNAc(b1-3)Gal(b1-4)GlcNAc(b1-3)[Neu5Ac(a2-3)Gal(b1-4)GlcNAc(b1-3)Gal(b1-4)GlcNAc(b1-6)]GalNAc
Method in brief: as §1

[19] = target: Neu5Ac(a2-3)Gal(b1-4)GlcNAc(b1-3)Gal(b1-4)GlcNAc(b1-6)[Gal(b1-3)]GalNAc
Method in brief: as §1

[20] = target: Neu5Ac(a2-3)Gal(b1-4)GlcNAc(b1-3)Gal(b1-4)[Fuc(a1-3)]GlcNAc
Method in brief: as §1

[21] = target: Neu5Ac(a2-3)Gal(b1-4)GlcNAc(b1-3)GalNAc
Method in brief: as §1

[22] = target: Neu5Ac(a2-3)Gal(b1-4)GlcNAc(b1-3)[Neu5Ac(a2-3)Gal(b1-4)GlcNAc(b1-6)]GalNAc
Method in brief: as §1

[23] = target: Neu5Ac(a2-3)Gal(b1-4)GlcNAc(b1-6)GalNAc
Method in brief: as §1

[24] = target: Neu5Ac(a2-3)Gal(b1-4)GlcNAc(b1-6)[Gal(b1-3)]GalNAc
Method in brief: as §1

[25] = target: Neu5Ac(a2-3)Gal(b1-4)GlcNAc(b1-6)[Neu5Ac(a2-3)Gal(b1-3)]GalNAc
Method in brief: as §1

[26] = target: Neu5Ac(a2-3)Gal(b1-4)GlcNAc6S
Method in brief: as §1

[27] = target: Neu5Ac(a2-3)Gal(b1-4)[Fuc(a1-3)]GlcNAc
Method in brief: as §1

[28] = target: Neu5Ac(a2-3)Gal(b1-4)[Fuc(a1-3)]GlcNAc(b1-2)Man
Method in brief: as §1

[29] = target: Neu5Ac(a2-3)Gal(b1-4)[Fuc(a1-3)]GlcNAc(b1-3)Gal
Method in brief: as §1

[30] = target: Neu5Ac(a2-3)Gal(b1-4)[Fuc(a1-3)]GlcNAc(b1-3)Gal(b1-4)GlcNAc
Method in brief: as §1

[31] = target: Neu5Ac(a2-3)Gal(b1-4)[Fuc(a1-3)]GlcNAc(b1-3)Gal(b1-4)[Fuc(a1-3)]GlcNAc(b1-3)Gal(b1-4)[Fuc(a1-3)]GlcNAc
Method in brief: as §1

[32] = target: Neu5Ac(a2-3)Gal(b1-4)[Fuc(a1-3)]GlcNAc(b1-3)GalNAc
Method in brief: as §1

[33] = target: Neu5Ac(a2-3)Gal(b1-4)[Fuc(a1-3)]GlcNAc(b1-6)[Gal(b1-3)]GalNAc
Method in brief: as §1

[34] = target: Neu5Ac(a2-3)Gal(b1-4)[Fuc(a1-3)]GlcNAc(b1-6)[Neu5Ac(a2-3)Gal(b1-3)]GalNAc
Method in brief: as §1

[35] = target: Neu5Ac(a2-3)Gal(b1-4)[Fuc(a1-3)]GlcNAc6S
Method in brief: as §1

[36] = target: Neu5Ac(a2-3)Gal6S(b1-4)GlcNAc
Method in brief: as §1

[37] = target: Neu5Ac(a2-3)Gal6S(b1-4)[Fuc(a1-3)]GlcNAc
Method in brief: as §1

B1: GS14009A-pdi-495-27-495 (Parabacteroides distasonis) (protein)
chain: FEEVNTDPDSPTDVPTTNLLAYSLYYTSYRLYDRWFAMDEPMTFCGYASKMTYIDESRYNFRTGVQDTNWEYLYRILNNLKDIEKRATFNETPNMLNVSKVMQVHLMQVATDRWRDVPYTDAAKMTDGILQPKYDKQEDIYPGLLATLKEAADGFADGGSDDLGEGDLLFGGDIEKWQRYCNSMRLRLAMRISEVSPALAKETVEEVMGNPTKYPIMESNDDNAFFWWIGTDPNYYEPMADGYRTRKTEYCAADVIVDHMNTREDPRRSSYFQPTKESVEAGEPKYVGYTIGAKANAVASKYSIWGARFFTDLAGFSPYMRVAEPWFCVAEASMLGWNTGISAEDAYNKAVTYSMEENSVSAEDIADYLANAGKFTNDKKQIYYEEWVAMFKQGMEGWSLYRRTGVPDNLYPAPGRPANYSNHNVPPFRSPYPDKERNLNNANCAPFDAEVVDNLWGKQMWWDTRTGVH
glycan array binding signal (z-score) (Neu5Ac(a2-3)Gal(b1-4)Glc): -0.074 | glycan array binding signal (z-score) [1]: -0.348 | glycan array binding signal (z-score) [2]: 0.633 | glycan array binding signal (z-score) [3]: 0.759 | glycan array binding signal (z-score) [4]: -0.114 | glycan array binding signal (z-score) [5]: 0.457 | glycan array binding signal (z-score) [6]: -0.337 | glycan array binding signal (z-score) [7]: -0.473 | glycan array binding signal (z-score) [8]: 0.12 | glycan array binding signal (z-score) [9]: 0.438 | glycan array binding signal (z-score) [10]: -0.498 | glycan array binding signal (z-score) [11]: -0.438 | glycan array binding signal (z-score) [12]: -0.508 | glycan array binding signal (z-score) [13]: -0.427 | glycan array binding signal (z-score) [14]: -0.54 | glycan array binding signal (z-score) [15]: 0.69 | glycan array binding signal (z-score) [16]: 1.45 | glycan array binding signal (z-score) [17]: -0.227 | glycan array binding signal (z-score) [18]: -0.779 | glycan array binding signal (z-score) [19]: -0.266 | glycan array binding signal (z-score) [20]: -0.091 | glycan array binding signal (z-score) [21]: 0.332 | glycan array binding signal (z-score) [22]: -0.41 | glycan array binding signal (z-score) [23]: -0.512 | glycan array binding signal (z-score) [24]: -0.294 | glycan array binding signal (z-score) [25]: -0.068 | glycan array binding signal (z-score) [26]: -0.58 | glycan array binding signal (z-score) [27]: -0.201 | glycan array binding signal (z-score) [28]: -0.004 | glycan array binding signal (z-score) [29]: -0.797 | glycan array binding signal (z-score) [30]: 0.015 | glycan array binding signal (z-score) [31]: -0.333 | glycan array binding signal (z-score) [32]: 0.555 | glycan array binding signal (z-score) [33]: 0.091 | glycan array binding signal (z-score) [34]: 0.048 | glycan array binding signal (z-score) [35]: -0.085 | glycan array binding signal (z-score) [36]: -0.508 | glycan array binding signal (z-score) [37]: -0.595
